Data: PubChem BioAssay AID652106 (National Center for Advancing Translational Sciences (NCATS), 2013)
Hit rate of the full screen: of about 370,000 compounds, about 500 (0.14%) were called active. Inconclusive results, whose numbers are uncertain, are shown with a selection of clear calls. Calls follow the shape of the dose curve; as a rule, active = well fitted activation curve with a large enough effect; inconclusive = small, poorly fitted or top-dose-only effect; inactive = no such curve, though single readings can be large or run the other way. Potencies of inconclusive entries are doubtful fits and often do not repeat.

Assay: qHTS of alpha-syn Inhibitors; also: nearly all actives have a fitted effect of over 65% in size; as to growth rescue (activation): % of control where 0% means no effect
Conditions: Yeast expressing alpha-synuclein, BacTiter-Glo, 24 h; Potency: growth rescue unless noted; growth rescue (activation): at 46.1 µM (top of the series) unless noted
In short: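 Screening used galactose-induced yeast with toxic alpha-synuclein levels, exposed to compound for 24 hr at 30 deg C. Cell growth, read with BacTiter-Glo luminescence, gave the measured signal.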
Potency is read from the fitted curve at half-maximal effect; tags tell the direction and shape of the fitted curve.

| SMILES | Potency | growth rescue (activation) |
| --- | --- | --- |
| COC(=O)[C@@]12C[C@@H](CC(=O)NCCCCc3ccccc3)C(=O)N(CCc3ccc(OC)c(OC)c3)C1=CCC(C)(C)C2 | inconclusive: 25.1 µM [activator, single point] |  |
| CC(O)(c1ccc(F)c(F)c1)c1nc(-c2cccc3cccnc23)cs1 (stereo not drawn) | inconclusive: 12.6 µM [activator, single point] |  |
| COc1ccc(CNC(=O)COC(=O)c2ccc3ncsc3c2)cc1OC |  | inconclusive: 234% [activator] [at 1.84 µM] |
| c1ccc(OCCn2c(-c3ccco3)nc3ccccc32)cc1 | inconclusive: 17.8 µM [activator, single point] |  |
| O=[N+]([O-])c1ccc(CNc2cccc(Cl)c2)s1 | inconclusive: 35.5 µM [activator, single point] |  |
| CCCCCC(=O)N1C[C@H](O)[C@@H](n2cc(C3CC3)nn2)C[C@@H]1c1ccc(Cl)cc1 | inconclusive: 6.31 µM [activator, single point] |  |
| COc1ccc(C(=O)NNC(=O)C(=O)/C=C(\O)c2ccc(C)cc2)cc1 | inconclusive: 14.1 µM [activator, single point] |  |
| Fc1ccc(C[n+]2csc3ccccc32)cc1 |  | inactive: -9.25% |
| O=C(NC1CC1)C1=C[C@H](C2CCCCC2)C[C@H](OCc2ccc(CO)cc2)O1 | inconclusive: 6.31 µM [activator, full curve] |  |
| COc1cc(-c2noc(C)c2C#CC2(O)CCCCC2)cc(OC)c1OC | inconclusive: 12.6 µM [activator, single point] |  |
| CC1=C(C(=O)N(C(C)C)C(C)C)CC(CC(=O)NCc2cccc3ccccc23)C(=O)N1Cc1ccc(C(C)(C)C)cc1 (stereo not drawn) | inconclusive: 35.5 µM [activator, single point] |  |
| CC(C)(C)c1ccc(C(=O)N2CCC(C(=O)NCCC3=CCCCC3)CC2)cc1 | inconclusive: 35.5 µM [activator, single point] |  |
| COC(=O)[C@]12CCCCC=C1N(CCC1=CCCCC1)C(=O)[C@H](CC(=O)NCCCCc1ccccc1)C2 | inconclusive: 35.5 µM [activator, single point] |  |
| CCc1nnc(NC(=O)c2cccc(C(=O)Nc3nnc(CC)s3)n2)s1 | inconclusive: 5.62 µM [activator, single point] |  |
| O=C(COC(=O)c1ccc(S(=O)(=O)N2CCCCC2)cc1)NC1CCCCC1 | inconclusive: 5.62 µM [activator, single point] |  |
| O=C1CC(c2cccc(Cl)c2)Cc2nc(N3CCN(c4ccccc4)CC3)ncc21 (stereo not drawn) |  | inactive: 4.84% |
| O=C(CCCOc1ccc(Cl)cc1Cl)N1CCc2ccccc2C1 | inconclusive: 10 µM [activator, single point] |  |
| Oc1cccc(NC(=S)Nc2ccccc2)c1 | inconclusive: 31.6 µM [activator, single point] |  |
| Cc1cc(C)cc(OCC(=O)NNC(=O)c2ccccn2)c1 | inconclusive: 28.2 µM [activator, single point] |  |
| CCOC(=O)c1ccccc1NC(=O)N1CCCN(S(=O)(=O)c2ccc3c(ccn3CC)c2)CC1 | inconclusive: 5.62 µM [activator, single point] |  |
| Cc1cccc(/C=N/Nc2cc(N3CCOCC3)nc(N3CCOCC3)n2)c1 |  | inactive: 7.21% |

| SMILES | Potency | growth rescue (activation) |
| --- | --- | --- |
| O=C(Nc1nnc(-c2ccc3c(c2)CCCC3)o1)c1ccc(Cl)cc1Cl | inconclusive: 5.62 µM [activator, single point] |  |
| COc1ccc(C(=O)Nc2nc3ccccc3[nH]2)cc1S(=O)(=O)N1CCCC1 | inconclusive: 3.16 µM [activator, single point] |  |
| N/C(=N\OC(=O)COc1ccc(Cl)cc1Cl)c1ccncc1 | inconclusive: 35.5 µM [activator, single point] |  |
| O=C(c1[nH]c(C(F)(F)F)nc1-c1ccccc1)N1CCN(c2ccc(C(F)(F)F)cn2)CC1 | inconclusive: 3.55 µM [activator, single point] |  |
| COc1ccc(C(=O)c2ccccc2)c(OCC(=O)NC2CC2)c1 | inconclusive: 11.2 µM [activator, partial curve] |  |
| COCc1nnc(NC(=O)c2ccc(S(=O)(=O)N(CC(C)C)CC(C)C)cc2)o1 | inconclusive: 35.5 µM [activator, single point] |  |
| Cc1ccc(C)c(N2CCN(C(=O)c3ccc(CS(=O)Cc4ccc(Cl)cc4)o3)CC2)c1 (stereo not drawn) | inconclusive: 22.4 µM [activator, single point] |  |
| COC(=O)C[C@@H]1C[C@@H]2c3cc(NC(=O)Cc4ccncc4)ccc3O[C@@H]2[C@@H](CO)O1 | inconclusive: 5.62 µM [activator, single point] |  |
| O=C(O)CCN1C(=O)/C(=C\c2cccc(Oc3ccccc3)c2)SC1=S |  | inactive: 12.1% |
| O=C(c1ccc2c(c1)OCCO2)N1CCN(c2ccc(C(F)(F)F)cn2)CC1 | inconclusive: 25.1 µM [activator, single point] |  |
| CCN(CC(O)Cn1c2ccccc2c2ccccc21)S(=O)(=O)c1ccc(F)cc1 (stereo not drawn) | inconclusive: 20 µM [activator, single point] |  |
| O=C1C(=Cc2cccs2)C(=O)c2ccccc21 | inconclusive: 3.16 µM [activator, single point] |  |
| C=CC(C)(C)O[C@@H]1O[C@H](CO)[C@@H](O)[C@H](O)[C@H]1O | inconclusive: 31.6 µM [activator, single point] |  |
| COc1ccc(C2=C(c3ccccc3)OC(OC)c3cc(F)ccc32)cn1 (stereo not drawn) | inconclusive: 35.5 µM [activator, single point] |  |
| CCc1nnc(NC(=O)c2ccc(S(=O)(=O)N3CCCc4ccccc43)cc2)o1 | inconclusive: 3.16 µM [activator, full curve, poor fit] |  |
| NC(=Nc1nc(-c2ccccn2)cc2ccccc12)c1ccccn1 | inconclusive: 3.55 µM [activator, single point] |  |
| CNC(=S)N1N=C(c2ccc(OC)cc2)CC1c1ccccc1Cl (stereo not drawn) |  | inactive: -14.3% |
| CCOC(=O)C1=C(C)NC2=C(C(=O)CCC2)C1c1cccs1 (stereo not drawn) |  | inactive: -9.91% |
| NC(=O)[C@H]1CC2(CC(c3cccc(NC(=O)[C@H]4CCC(=O)N4)c3)=NO2)CN1C(=O)CC(c1ccccc1)c1ccccc1 (stereo partly drawn) |  | inactive: -4.7% |
| CCOCC(=O)N1CCN(c2cccc(Cl)c2)CC1 |  | inactive: 7% |
| CCCCN(CCCC)S(=O)(=O)c1ccc(NC(=O)c2cccs2)cc1 |  | inactive: -2.52% |

| SMILES | Potency | growth rescue (activation) |
| --- | --- | --- |
| COc1ccc([C@H]2CC(=O)C=C(c3cccc(Br)c3)C2)cc1 | inconclusive: 3.55 µM [activator, single point] |  |
| O=C(NCC(F)(F)F)c1cc2c(c(-c3cccc(-c4ccccc4F)c3)n1)[C@@H](CCO)N(C(=O)CC1CC1)C2 | inconclusive: 17.8 µM [activator, partial curve, poor fit] |  |
| CCC(C)NC(=O)c1cn(CC)c2cc(N3CCN(C(=O)c4ccco4)CC3)c(F)cc2c1=O (stereo not drawn) | inconclusive: 12.6 µM [activator, single point] |  |
| COc1ccc(NC(=O)c2cnc3sccn3c2=O)cc1 | inconclusive: 35.5 µM [activator, single point] |  |
| Cc1ccc(C)c(S(=O)(=O)N2CCN(Cc3ccc(O)c4ncccc34)CC2)c1 | inconclusive: 15.8 µM [activator, single point] |  |
| COC(=O)N1CCCCC1c1cc(C(=O)NCc2ccc(F)cc2)no1 (stereo not drawn) | inconclusive: 28.2 µM [activator, single point] |  |
| O=C(NC1CC1)C1=C[C@@H](c2csc3ccccc23)C[C@@H](OCc2ccc(CO)cc2)O1 |  | inactive: 28.8% |
| O=c1cc(CCc2ccccc2)[nH]c(=O)[nH]1 | inconclusive: 6.31 µM [activator, single point] |  |
| O=[N+]([O-])c1ccc(-c2nc(-c3ccc(F)cc3)c(-c3ccncc3)[nH]2)cc1 | inconclusive: 9.2 µM [activator, partial curve] |  |
| COc1ccc(C(O)c2nc(-c3cccc(F)c3)cs2)cc1 (stereo not drawn) | inconclusive: 35.5 µM [activator, single point] |  |
| NNC(=O)c1sccc1OCc1ccc(Cl)cc1Cl | inconclusive: 31.6 µM [activator, single point] |  |
| COc1ccc(NC(=O)N2c3ccccc3C(C)=CC2(C)C)cc1 |  | inactive: -3.16% |
| Cc1cc(C)nc(-n2nc(C)cc2NC(=O)CN2CCc3ccccc3C2)n1 | inconclusive: 10 µM [activator, partial curve] |  |
| CCOC(=O)C1CCN(C2=NC(=O)/C(=C/c3ccc(OC)c(OC)c3)S2)CC1 |  | inactive: 0.434% |
| Cn1c(=O)c(C(=O)Nc2ncccn2)c(O)c2ccccc21 | inconclusive: 1.78 µM [activator, full curve, poor fit] |  |
| Cc1ccc(Cc2c(-c3ccco3)nc3ccc(Cl)cn23)cc1 | inconclusive: 1.58 µM [activator, full curve] |  |
| CCOC(=O)c1c(NC(=O)Nc2ccc(C)cc2)sc2c1CCN(C)C2 | inconclusive: 35.5 µM [activator, single point] |  |
| Cc1nc2ccccc2nc1N/N=C/c1ccc(O)cc1O | inconclusive: 35.5 µM [activator, single point] |  |
| O=C1OCCC1Sc1nnc(-c2ccc(Cl)cc2Cl)o1 (stereo not drawn) | inconclusive: 4.47 µM [activator, single point] |  |
| O=C(NCC1CCCO1)c1ccc(CS(=O)(=O)c2ccc(Br)cc2)o1 (stereo not drawn) | inconclusive: 31.6 µM [activator, single point] |  |
| c1ccc2c(c1)ccn2-n1ccc2ccccc21 | inconclusive: 35.5 µM [activator, single point] |  |
